According to the supplement of paper PMC8728848:
Some of the results follow.

Tests used:
Assay in all cases: glycan array binding signal (z-score within array); higher = stronger binding
Settings in all cases: glycan notation: IUPAC condensed, linker removed
[1] = target: GlcA(b1-3)GlcNAc
Method in brief: (§1)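 The binding signal is a Z-score computed within each array and averaged over linkers. Arrays of the same protein sequence at different concentrations or buffers were also averaged together. Data originate from 3228 arrays in the Consortium for Functional Glycomics database, kept only where the protein sequence was available.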

[2] = target: GlcA(b1-6)Gal
Method in brief: as §1

[3] = target: GlcNAc(a1-3)Gal(b1-4)GlcNAc
Method in brief: as §1

[4] = target: GlcNAc(a1-6)Gal(b1-4)GlcNAc
Method in brief: as §1

[5] = target: GlcNAc(b1-2)Gal(b1-3)GalNAc
Method in brief: as §1

[6] = target: GlcNAc(b1-2)Man(a1-3)[GlcNAc(b1-2)Man(a1-6)]Man(b1-4)GlcNAc(b1-4)GlcNAc
Method in brief: as §1

[7] = target: GlcNAc(b1-3)Gal
Method in brief: as §1

[8] = target: GlcNAc(b1-3)Gal(b1-3)GalNAc
Method in brief: as §1

[9] = target: GlcNAc(b1-3)Gal(b1-4)Glc
Method in brief: as §1

[10] = target: GlcNAc(b1-3)Gal(b1-4)GlcNAc
Method in brief: as §1

[11] = target: GlcNAc(b1-3)Gal(b1-4)GlcNAc(b1-3)Gal(b1-4)GlcNAc
Method in brief: as §1

[12] = target: GlcNAc(b1-3)GalNAc
Method in brief: as §1

[13] = target: GlcNAc(b1-3)Man
Method in brief: as §1

[14] = target: GlcNAc(b1-3)[GlcNAc(b1-4)][GlcNAc(b1-6)]GlcNAc
Method in brief: as §1

[15] = target: GlcNAc(b1-3)[GlcNAc(b1-6)]Gal(b1-4)GlcNAc
Method in brief: as §1

[16] = target: GlcNAc(b1-3)[GlcNAc(b1-6)]GalNAc
Method in brief: as §1

[17] = target: GlcNAc(b1-4)Gal(b1-4)GlcNAc
Method in brief: as §1

[18] = target: GlcNAc(b1-4)GlcNAc
Method in brief: as §1

[19] = target: GlcNAc(b1-4)GlcNAc(b1-4)GlcNAc
Method in brief: as §1

[20] = target: GlcNAc(b1-4)GlcNAc(b1-4)GlcNAc(b1-4)GlcNAc(b1-4)GlcNAc
Method in brief: as §1

[21] = target: GlcNAc(b1-4)GlcNAc(b1-4)GlcNAc(b1-4)GlcNAc(b1-4)GlcNAc(b1-4)GlcNAc
Method in brief: as §1

[22] = target: GlcNAc(b1-4)[GlcNAc(b1-6)]GalNAc
Method in brief: as §1

[23] = target: GlcNAc(b1-6)Gal(b1-4)GlcNAc
Method in brief: as §1

[24] = target: GlcNAc(b1-6)GalNAc
Method in brief: as §1

[25] = target: GlcNAc3Prop(b1-4)GlcNAc
Method in brief: as §1

[26] = target: Kdn(a2-3)Gal(b1-3)GlcNAc
Method in brief: as §1

[27] = target: Kdn(a2-3)Gal(b1-4)GlcNAc
Method in brief: as §1

[28] = target: Man(a1-2)Man(a1-2)Man(a1-3)Man
Method in brief: as §1

[29] = target: Man(a1-2)Man(a1-2)Man(a1-6)[Man(a1-3)]Man
Method in brief: as §1

[30] = target: Man(a1-2)Man(a1-3)Man
Method in brief: as §1

[31] = target: Man(a1-2)Man(a1-3)[Man(a1-2)Man(a1-6)]Man
Method in brief: as §1

[32] = target: Man(a1-2)Man(a1-3)[Man(a1-2)Man(a1-6)]Man(a1-6)[Man(a1-2)Man(a1-2)Man(a1-3)]Man
Method in brief: as §1

[33] = target: Man(a1-2)Man(a1-3)[Man(a1-2)Man(a1-6)]Man(a1-6)[Man(a1-2)Man(a1-2)Man(a1-3)]Man(b1-4)GlcNAc(b1-4)GlcNAc
Method in brief: as §1

[34] = target: Man(a1-2)Man(a1-3)[Man(a1-6)]Man(a1-6)[Man(a1-2)Man(a1-3)]Man(b1-4)GlcNAc(b1-4)GlcNAc
Method in brief: as §1

[35] = target: Man(a1-2)Man(a1-6)[Man(a1-3)]Man(a1-6)[Man(a1-2)Man(a1-2)Man(a1-3)]Man
Method in brief: as §1

[36] = target: Man(a1-2)Man(a1-6)[Man(a1-3)]Man(a1-6)[Man(a1-2)Man(a1-2)Man(a1-3)]Man(b1-4)GlcNAc(b1-4)GlcNAc
Method in brief: as §1

[37] = target: Man(a1-3)[Man(a1-6)]Man
Method in brief: as §1

B1: CBM32-4 (Clostridium perfringens), P26831 (protein)
chain: MGSSHHHHHHSSGLVPRGSHMASVYEPSLVDAYVGDDGAKKAVDGDLKTRVKFLGAPSTGDTIVYDLGQEILVDNLKYVVLDTEVDHVRDGKIQLSLDGETWTDAINIGDGVENGVDDMFSTPLKNGYKHGNQSGGIVPIDSAYVEGDNLNQKARYVRILFTAPYRHRWTVINELMINNGEYIPTVNDPT
**Q.** For B1, which “glycan array binding signal (z-score)” value [1] is on record?
**A.** -0.121

**Q.** What about the “glycan array binding signal (z-score)” value [2] of the same binder?
**A.** 0.487

**Q.** And the “glycan array binding signal (z-score)” value [3]?
**A.** -0.069

**Q.** And the “glycan array binding signal (z-score)” value [4]?
**A.** -0.436

**Q.** And the “glycan array binding signal (z-score)” value [5]?
**A.** -0.264

**Q.** What about the “glycan array binding signal (z-score)” value [6] of the same binder?
**A.** -0.4

**Q.** And the “glycan array binding signal (z-score)” value [7]?
**A.** -0.348

**Q.** What about the “glycan array binding signal (z-score)” value [8] of the same binder?
**A.** -0.276

**Q.** What about the “glycan array binding signal (z-score)” value [9] of the same binder?
**A.** -0.322

**Q.** And the “glycan array binding signal (z-score)” value [10]?
**A.** -0.294

**Q.** What about the “glycan array binding signal (z-score)” value [11] of the same binder?
**A.** -0.423

**Q.** And the “glycan array binding signal (z-score)” value [12]?
**A.** -0.459

**Q.** And the “glycan array binding signal (z-score)” value [13]?
**A.** -0.255

**Q.** And the “glycan array binding signal (z-score)” value [14]?
**A.** -0.436

**Q.** And the “glycan array binding signal (z-score)” value [15]?
**A.** 0.021

**Q.** And the “glycan array binding signal (z-score)” value [16]?
**A.** -0.289

**Q.** And the “glycan array binding signal (z-score)” value [17]?
**A.** -0.394

**Q.** What about the “glycan array binding signal (z-score)” value [18] of the same binder?
**A.** 0.065

**Q.** And the “glycan array binding signal (z-score)” value [19]?
**A.** -0.265

**Q.** And the “glycan array binding signal (z-score)” value [20]?
**A.** 2.69

**Q.** And the “glycan array binding signal (z-score)” value [21]?
**A.** 3.33

**Q.** And the “glycan array binding signal (z-score)” value [22]?
**A.** -0.49

**Q.** What about the “glycan array binding signal (z-score)” value [23] of the same binder?
**A.** -0.437

**Q.** And the “glycan array binding signal (z-score)” value [24]?
**A.** -0.436

**Q.** And the “glycan array binding signal (z-score)” value [25]?
**A.** -0.448

**Q.** And the “glycan array binding signal (z-score)” value [26]?
**A.** -0.535

**Q.** And the “glycan array binding signal (z-score)” value [27]?
**A.** -0.439

**Q.** And the “glycan array binding signal (z-score)” value [28]?
**A.** -0.132

**Q.** What about the “glycan array binding signal (z-score)” value [29] of the same binder?
**A.** -0.373

**Q.** And the “glycan array binding signal (z-score)” value [30]?
**A.** -0.021

**Q.** And the “glycan array binding signal (z-score)” value [31]?
**A.** -0.276

**Q.** And the “glycan array binding signal (z-score)” value [32]?
**A.** -0.564

**Q.** And the “glycan array binding signal (z-score)” value [33]?
**A.** 0.898

**Q.** What about the “glycan array binding signal (z-score)” value [34] of the same binder?
**A.** 0.141

**Q.** And the “glycan array binding signal (z-score)” value [35]?
**A.** -0.516

**Q.** What about the “glycan array binding signal (z-score)” value [36] of the same binder?
**A.** -0.464

**Q.** And the “glycan array binding signal (z-score)” value [37]?
**A.** -0.553
